Reference: PubChem BioAssay (NCATS)
Inconclusive means that the source gave no clear call. Such entries were picked first, then a sample of the others. Potencies of inconclusive entries are left out as doubtful fits. The source made the active and inactive calls. The call rests on the fitted dose curve; in most records, active means well fitted inhibition curve with a large enough effect; inconclusive means small, poorly fitted or top-dose-only effect; inactive means no such curve, though single readings can be large or run the other way.

molecular target: Rap guanine nucleotide exchange factor 3 (Homo sapiens) (UniProt O95398); test: Confirmatory qHTS for antagonist of cAMP-regulated guanine nucleotide exchange factor 3 (EPAC1) (AID 1645880); details: EPAC1 Rap1B-BODIPY-GDP exchange, fluorescence; activity, negative = inhibition: at 115 µM (top of the series); further: nearly all actives have a fitted effect of over 55% in size;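 on activity, negative = inhibition: plate controls were DMSO only for no effect and full effect of the ATA control for full effect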
Procedure, shortened: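 Released BODIPY-GDP fluoresces less than Rap1-bound BODIPY-GDP; the signal is followed at 480/540 nm at 5-min intervals over 30 min, after 5 min at room temperature. Reactions contain 100 nM EPAC1, 250 nM RAP1B-BODIPY-GDP and 50 uM GDP; results are normalized to ATA and DMSO.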
Potency means the concentration at half of the fitted maximal effect; tags describe the fitted curve by direction and shape.

Chain of UniProt O95398 (O95398 whole entry, looked up): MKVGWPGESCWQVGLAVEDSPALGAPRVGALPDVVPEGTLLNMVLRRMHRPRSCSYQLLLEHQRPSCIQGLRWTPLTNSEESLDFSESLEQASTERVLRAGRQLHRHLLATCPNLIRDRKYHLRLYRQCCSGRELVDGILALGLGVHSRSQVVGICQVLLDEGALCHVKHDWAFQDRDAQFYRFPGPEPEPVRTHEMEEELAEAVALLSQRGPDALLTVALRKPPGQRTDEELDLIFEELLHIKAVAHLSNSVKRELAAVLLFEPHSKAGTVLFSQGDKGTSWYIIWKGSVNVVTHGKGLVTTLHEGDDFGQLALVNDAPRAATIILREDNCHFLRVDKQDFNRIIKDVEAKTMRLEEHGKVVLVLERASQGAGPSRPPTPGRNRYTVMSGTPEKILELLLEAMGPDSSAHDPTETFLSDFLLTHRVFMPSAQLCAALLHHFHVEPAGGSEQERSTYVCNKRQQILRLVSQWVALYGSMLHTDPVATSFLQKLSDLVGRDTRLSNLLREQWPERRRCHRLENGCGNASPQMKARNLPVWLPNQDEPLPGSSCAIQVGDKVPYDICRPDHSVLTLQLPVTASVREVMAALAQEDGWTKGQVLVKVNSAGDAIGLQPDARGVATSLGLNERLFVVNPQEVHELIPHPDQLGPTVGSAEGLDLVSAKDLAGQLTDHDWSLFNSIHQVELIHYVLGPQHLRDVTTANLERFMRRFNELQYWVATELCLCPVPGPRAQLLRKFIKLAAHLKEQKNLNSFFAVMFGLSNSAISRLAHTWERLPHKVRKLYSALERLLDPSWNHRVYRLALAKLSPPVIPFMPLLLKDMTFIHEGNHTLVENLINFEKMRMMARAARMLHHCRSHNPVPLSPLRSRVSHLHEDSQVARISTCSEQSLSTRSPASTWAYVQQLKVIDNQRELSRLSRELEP

SMILES	Potency	activity, negative = inhibition
Cc1nnc(SCC(=O)NCc2ccccc2F)c2nn(-c3ccc(Cl)cc3)c(C)c12	inconclusive [inhibitor, single point]	
O=C(O)c1cc(-c2ccc(/C=C3/SC(=S)N(Cc4ccccc4)C3=O)o2)ccc1Cl	inconclusive [inhibitor, partial curve]	
Cc1ccc(Nc2nnc(-c3ccc(C)c(S(N)(=O)=O)c3)c3ccccc23)cc1	inconclusive [inhibitor, partial curve]	
N#C/C(=C\c1ccccn1)c1nc2ccccc2s1	active: 19 µM	
CCOC(=O)C(NS(=O)(=O)c1ccc(C)cc1)(C(F)(F)F)P(=O)(OCC(C)C)OCC(C)C (centres undefined)	inconclusive [inhibitor, partial curve]	
COc1cccc(-c2nc(SCC(=O)Nc3nc(-c4ccccc4)c(C)s3)[nH]c(=O)c2C#N)c1	active: 75.7 µM	
Cc1ccc(C)c(Cn2c(C3CC(=O)N(c4ccccc4C)C3)nc3ccccc32)c1 (centres undefined)	inconclusive [inhibitor, partial curve, poor fit]	
COc1cc(/C=C2\SC(=S)N(NS(=O)(=O)c3ccccc3)C2=O)cc(OC)c1OC	active: 15.1 µM	
CN(Nc1cccc(Cl)c1)c1cccc(Cl)c1	inconclusive [inhibitor, partial curve, poor fit]	
CCOc1cccc(CC(=O)NCc2ccc3c(c2)CCN3C(C)=O)c1OCC		inactive: -13.5%
Cc1csc2c(=O)sc(NC(=O)c3cccs3)nc12	inconclusive [inhibitor, partial curve]	
CCc1nc2ccc(C(=O)Nc3ccc(NC(C)=O)cc3)cn2c1N(C)CCC(C)C	inconclusive [inhibitor, partial curve]	
Oc1cccc(C=Nc2cccc3ccccc23)c1O	inconclusive [inhibitor, partial curve]	
Cc1noc(C)c1COc1ccccc1C(=O)NC(C)c1ccc(Cl)cc1 (centres undefined)	inconclusive [inhibitor, partial curve, poor fit]	
Cc1[nH][nH]c(=O)c1C(c1c(C)[nH][nH]c1=O)c1cn(Cc2cccc3ccccc23)c2ccccc12	active: 75.7 µM	
COc1ccc(S(=O)(=O)N2CCC[C@H]2C(=O)N2CCC[C@H]2C(=O)N[C@@H](C)c2ccccc2)cc1C		inactive: -20.4%
CCCc1ccc2oc(C(=O)NCCc3nc(C(=O)OCC)cs3)c(C)c2c1	inconclusive [inhibitor, partial curve, poor fit]	
CCOC(=O)c1ccc(-n2c(N)c(C(=O)OC)c3nc4ccccc4nc32)cc1	inconclusive [inhibitor, single point]	
COc1ccccc1C(CC(=O)N1CCCC1)c1ccc2c(c1)OCO2 (centres undefined)		inactive: -12.4%
CCc1nc2c(OCc3ccc(OC(F)F)cc3)cccn2c1N(C)C(=O)c1cccs1	inconclusive [inhibitor, partial curve, poor fit]	
Cc1[nH]n(-c2ccccc2)c(=O)c1C(c1cc(Cl)ccc1O)c1c(C)[nH]n(-c2ccccc2)c1=O	active: 75.7 µM	
COc1cc(S(=O)(=O)NC2CCCCC2C)ccc1Cl (centres undefined)	inconclusive [inhibitor, partial curve, poor fit]	
CCCCC(CC)C(=O)Nc1ccc(Nc2ccccc2)cc1 (centres undefined)	inconclusive [inhibitor, partial curve, poor fit]	
CCOc1cc(/C=C/c2cc(C(=O)O)c3ccccc3n2)ccc1OC	inconclusive [inhibitor, partial curve, poor fit]	
Cc1ccc2cc(CN(Cc3ccco3)C(=O)c3ccco3)c3nnnn3c2c1		inactive: -26.4%
CC(C)(C)n1nc(Cc2cccc3ccccc23)c(C#N)c1N	inconclusive [inhibitor, full curve, poor fit]	
CC(C)(C)Cc1c(-c2ccccc2)nc2ccc(Cl)cn12	inconclusive [inhibitor, partial curve, poor fit]	
CCn1c(SCC(=O)N/N=C/C=C\c2ccco2)nc2ccccc21	inconclusive [inhibitor, partial curve]	
O=C(CCC1N=C2c3ccccc3N=C(SCc3ccc(Cl)cc3)N2C1=O)NCc1cccs1 (centres undefined)	inconclusive [inhibitor, partial curve, poor fit]	
